# Source: the antibiotic and cytotoxicity screens of Wong et al. (2023)
# The list shows a part of the results.
# Tests used:
# HSkMC = human skeletal muscle cells; experiment: cytotoxicity call (relative viability < 0.9); conditions: 10 µM
# HepG2 = experiment: cytotoxicity call (relative viability < 0.9); conditions: 10 µM
# S. aureus RN4220 = experiment: growth inhibition call (relative growth <= 0.2); conditions: 50 µM
Compound,cytotoxicity call (HSkMC),cytotoxicity call (HepG2),growth inhibition call (S. aureus RN4220)
CC(C)OC(=O)C(C)(C)Oc1ccc(C(=O)c2ccc(Cl)cc2)cc1,inactive,inactive,inactive
C[C@H]1CN([C@@H](C)CO)C(=O)c2cc(-c3ccc(C(=O)N(C)C)cc3)cnc2O[C@@H]1CN(C)C(=O)C1CC1,inactive,inactive,inactive
O=C(O)CCC(=O)C(=O)O,inactive,inactive,inactive
COCCN1C[C@]23CN(C(=O)COC)C[C@@H](C[C@H]2S1(=O)=O)O3,inactive,inactive,inactive
C[C@@H]1CN([C@@H](C)CO)C(=O)c2cccc(NC(=O)C3CCCCC3)c2O[C@H]1CN(C)Cc1ccc(C(=O)Nc2ccccc2N)cc1,inactive,inactive,inactive
C[C@@H]1CCCCO[C@@H](CN(C)C(=O)Nc2ccc(C(F)(F)F)cc2)[C@H](C)CN([C@@H](C)CO)C(=O)c2cc(NC(=O)Nc3ccc(F)cc3)ccc2O1,inactive,inactive,inactive
C[C@@H]1CN([C@H](C)CO)C(=O)c2cc(NC(=O)Cc3cn(C)c4ccccc34)ccc2O[C@H]1CN(C)Cc1ccc(C(=O)Nc2ccccc2N)cc1,inactive,inactive,inactive
Cc1ccc(S(=O)(=O)Nc2ccc3c(c2)C(=O)N([C@H](C)CO)C[C@@H](C)[C@@H](CN(C)S(C)(=O)=O)O3)cc1,inactive,inactive,inactive
C[C@@H]1CCCCO[C@@H](CN(C)S(=O)(=O)c2ccc(Cl)cc2)[C@H](C)CN([C@@H](C)CO)C(=O)c2cc(NC(=O)CCC(F)(F)F)ccc2O1,inactive,active,inactive
C[C@H]1CN([C@@H](C)CO)C(=O)CCCn2nncc2CO[C@H]1CN(C)S(C)(=O)=O,inactive,inactive,inactive
CSc1nc(C)cc(NC(N)=O)n1,inactive,inactive,inactive
CO/N=[N+](\[O-])N1CCCC1,inactive,inactive,inactive
C[C@@H]1CN([C@@H](C)CO)C(=O)c2cc(NC(=O)Nc3ccc4c(c3)OCO4)ccc2O[C@@H](C)CCCCO[C@@H]1CN(C)C(=O)C1CCCCC1,inactive,inactive,inactive
CCCCCCCC(=O)OCC(COC(=O)CCCCCCC)OC(=O)CCCCCCC,inactive,inactive,inactive
C[C@@H]1CN([C@@H](C)CO)C(=O)CCCn2nncc2CO[C@@H]1CN(C)S(=O)(=O)c1ccc(Oc2ccccc2)nc1,inactive,inactive,inactive
C[C@@H]1CN([C@@H](C)CO)C(=O)Cc2cc(NC(=O)Nc3ccccc3)ccc2O[C@H]1CN(C)C(=O)Nc1ccc(C(F)(F)F)cc1,inactive,inactive,inactive
C[C@H]1CN([C@@H](C)CO)C(=O)c2ccccc2-c2ccccc2CO[C@H]1CN(C)C(=O)Nc1cccc(F)c1,inactive,inactive,inactive
C[C@@H]1CCCCO[C@@H](CN(C)C(=O)NC2CCCCC2)[C@@H](C)CN([C@@H](C)CO)C(=O)c2cc(NC(=O)Nc3cccc4ccccc34)ccc2O1,inactive,inactive,inactive
C[C@H](CO)N1C[C@H](C)[C@H](CN(C)Cc2ccc(C(=O)Nc3ccccc3N)cc2)Oc2c(NC(=O)Nc3ccc(F)cc3)cccc2C1=O,inactive,inactive,inactive
C[C@@H]1CCCCO[C@@H](CN(C)S(=O)(=O)c2cccs2)[C@H](C)CN([C@@H](C)CO)C(=O)c2cc(NS(=O)(=O)c3cn(C)cn3)ccc2O1,inactive,inactive,inactive
COc1ccc(NC(=O)N(C)C[C@@H]2Oc3ccc(NS(=O)(=O)c4cn(C)cn4)cc3C(=O)N([C@H](C)CO)C[C@H]2C)cc1,inactive,inactive,inactive
C[C@H](CO)N1C[C@H](C)[C@H](CN(C)Cc2ccc(-c3ccccc3)cc2)Oc2c(NC(=O)Nc3ccccc3)cccc2C1=O,inactive,inactive,inactive
CO[C@@H](CN(C)S(=O)(=O)c1ccc(C)cc1)[C@@H](C)CN([C@@H](C)CO)S(=O)(=O)c1cccc(Cl)c1,inactive,inactive,inactive
C[C@H]1CCCCO[C@@H](CN(C)Cc2ccccc2)[C@@H](C)CN([C@@H](C)CO)C(=O)c2cc(NC(=O)c3ccccc3)ccc2O1,inactive,inactive,inactive
CCS(=O)(=O)N[C@H]1C=C[C@@H](CC(=O)NCc2ccc(Cl)cc2)O[C@@H]1CO,inactive,inactive,inactive
C[C@@H]1CN([C@H](C)CO)C(=O)c2cccc(NC(=O)Nc3ccccc3)c2O[C@@H]1CN(C)Cc1ccc(Oc2ccccc2)cc1,inactive,inactive,inactive
